{"source": "PubChem BioAssay AID463173", "about": "(ICCB-Longwood Screening Facility, Harvard Medical School, 2010)", "note": "Among all 52,000 compounds or so, about 4,300 (8.3%) were called active. Cut-off read from the data, not from the text of the source: active = survival mostly below about 52% (no sharp cut-off); inactive = mostly above about 56%. Some of the results follow."}
{"system": "DeltatarO mutant", "test": "S. aureus survival, RN4220 and DeltatarO strains – OD600, teichoic acid synthesis inhibitors, primary screen (AID 463173)", "conditions": "S. aureus RN4220 wild type/DeltatarO growth, OD600, 18 h, hits give low values, screened at 18.75 µg/mL (by protocol)"}
{"compound": "COc1ccccc1CNC(=O)CCS(=O)(=O)c1ccc2c(c1)CC(C)N2C(=O)C1CC1", "note": "(stereo not drawn)", "survival": "active: 8%"}
{"compound": "O=C(NCC1CCN(Cc2ccccc2Cl)CC1)c1cc2ccc3cccnc3c2[nH]1", "survival": "inactive: 73%"}
{"compound": "COc1ccccc1CNC(=O)CCc1c(C)nn(-c2ccc(N3CCCC3)nn2)c1C", "survival": "inactive: 69%"}
{"compound": "Cc1cc(C)cc(NC(=O)C2CCN(S(=O)(=O)c3c(C)noc3/C=C/c3ccco3)CC2)c1", "survival": "inactive: 73%"}
{"compound": "Cc1ccn2c(Nc3c(C)cccc3C)c(-c3ccc(Cl)s3)nc2c1", "survival": "active: 37%"}
{"compound": "CC1SC(c2ccccc2)N(Cc2ccccc2)C1=O", "note": "(stereo not drawn)", "survival": "inactive: 77%"}
{"compound": "Cc1ccc2scc(N3CCN(c4cccc(C(F)(F)F)c4)CC3)c(=O)c2c1", "survival": "inactive: 77%"}
{"compound": "CCCCN(CCCC)C1=C(C(=O)c2ccccc2)N(CC)S(=O)(=O)c2ccccc21", "survival": "active: 60%"}
{"compound": "COC(=O)CN1C(=O)C(C)(C)c2cc(S(=O)(=O)NCc3ccc(Cl)cc3)ccc21", "survival": "inactive: 84%"}
{"compound": "CCOc1ccc(-n2c(Cc3ccccc3)nnc2SCc2nc(-c3cccs3)no2)cc1", "survival": "inactive: 54%"}
{"compound": "Cc1ccc(-c2nc(-c3cc4cccc(OCc5cccc(F)c5)c4oc3=O)no2)cc1", "survival": "inactive: 46%"}
{"compound": "COc1cccc(NC(=O)c2sc3nc(C)c(C(=O)Nc4ccc(C)cc4C)c(-c4cccs4)c3c2N)c1", "survival": "inactive: 122%"}
{"compound": "Cn1c(=N)n(CC(=O)c2ccc(-c3ccccc3)cc2)c2ccccc21", "survival": "inactive: 106%"}
{"compound": "COc1ccc(CC(=O)Nc2cc(-c3nc4cccnc4s3)ccc2C)cc1", "survival": "active: 41%"}
{"compound": "CCOc1ccc(-n2c(=O)c3c4c(sc3n(CC(=O)NC(C)CC)c2=O)CCC4)cc1", "note": "(stereo not drawn)", "survival": "inactive: 142%"}
{"compound": "O=S(=O)(c1ccc(Cl)cc1)c1nnn2c1nc(NCc1cccs1)c1sccc12", "survival": "inactive: 43%"}
{"compound": "CCC(=O)Nc1ccc2nc(SCc3ccccc3)sc2c1", "survival": "inactive: 76%"}
{"compound": "COc1ccc(C)cc1NC(=O)CSc1nc(=O)[nH]c2c1CCCC2", "survival": "inactive: 120%"}
{"compound": "CCC(CC)C(=O)N1CCc2cc(OC)c(OC)cc2C1COc1ccc(C(=O)OC)cc1", "note": "(stereo not drawn)", "survival": "inactive: 73%"}
{"compound": "CCCn1c(=O)c(C(=O)Nc2nccs2)c(O)c2ccccc21", "survival": "inactive: 99%"}
{"compound": "O=C(CSc1cn(CCNC(=O)c2ccccc2F)c2ccccc12)Nc1ccc(F)cc1", "survival": "inactive: 65%"}
{"compound": "COc1cccc(N2C(=O)CSC23C(=O)N(CC(=O)Nc2cccc(Cl)c2)c2ccccc23)c1", "note": "(stereo not drawn)", "survival": "inactive: 101%"}
{"compound": "COc1cc(CN(C(=O)COc2ccccc2Cl)c2ccccn2)cc(OC)c1OC", "survival": "inactive: 72%"}
{"compound": "CCn1c(C)c(C)c2cc(C(=O)N3CCN(c4cccc(C)c4C)CC3)ccc21", "survival": "inactive: 94%"}
{"compound": "CC1(C)OC(c2ccncc2)OC1(C)C", "survival": "inactive: 93%"}
{"compound": "O=C(c1ccc2c(c1)CCCC2)N1CCN(c2nc3ccc(F)cc3s2)CC1", "survival": "inactive: 75%"}
{"compound": "CCc1ccc(S(=O)(=O)NCc2nc3cccnc3n2Cc2ccccc2Cl)cc1", "survival": "inactive: 94%"}
{"compound": "CCn1c(COc2ccc(C)cc2)nnc1SCC(=O)N1CCCc2ccccc21", "survival": "inactive: 101%"}
{"compound": "CCCOc1ccc(CNC(=O)Cn2cc3c(n2)-c2c(oc(C(=O)N4CCOCC4)c2C)CC3)cc1", "survival": "inactive: 76%"}
{"compound": "COc1cccc(-n2c(SCC(=O)N3CCCc4ccccc43)nc3c([nH]c4ccccc43)c2=O)c1", "survival": "inactive: 102%"}
{"compound": "O=C(CCSCc1cccc(F)c1)NCc1ccccc1", "survival": "inactive: 68%"}
{"compound": "CCOc1ccc2nc(SCC(=O)N(C)C3CCCCC3)c(C#N)cc2c1", "survival": "inactive: 89%"}
{"compound": "COc1ccc(Cl)cc1NC(=O)Cn1c(=O)n(CCCC(=O)NCCc2ccc(OC)c(OC)c2)c(=O)c2ccccc21", "survival": "inactive: 71%"}
{"compound": "COc1ccc(-c2nnc(Nc3ccc(OC)c(C(N)=O)c3)c3ccccc23)cc1", "survival": "active: 41%"}
{"compound": "CCS(=O)(=O)c1nc(S(=O)(=O)c2ccc(C)cc2)c(NC(C)c2ccccc2)s1", "note": "(stereo not drawn)", "survival": "inactive: 103%"}
{"compound": "CCOc1ccc(-n2cc(-c3ccccc3)c3c(N4CCC(C)CC4)ncnc32)cc1", "survival": "inactive: 90%"}
{"compound": "Cc1ccc(S(=O)(=O)c2nc(-c3ccc(F)cc3)oc2SCC(=O)c2ccccc2)cc1", "survival": "active: 47%"}
{"compound": "CCc1ccc2oc(-c3cccc(NC(=O)C(C)(C)Oc4ccc(Br)cc4)c3)nc2c1", "survival": "active: 36%"}
{"compound": "Cc1cc(C)cc(Nc2ncnc3onc(-c4ccc(F)cc4)c23)c1", "survival": "inactive: 84%"}
{"compound": "O=C(NCc1ccccc1)NC1(C(=O)NCC2CCCO2)CCCCC1", "note": "(stereo not drawn)", "survival": "inactive: 70%"}
{"compound": "Cc1ccc(Nc2c(-c3ccc(C)cc3)nc3ccc(C)cn23)cc1", "survival": "inactive: 117%"}
{"compound": "CCc1ccccc1NC(=O)N1CCc2cc(OC)c(OC)cc2C1CC(=O)OC", "note": "(stereo not drawn)", "survival": "inactive: 117%"}
{"compound": "COC(=O)C1=NNC2C(=O)N(c3cc(C)cc(C)c3)C(=O)C12", "note": "(stereo not drawn)", "survival": "inactive: 69%"}
{"compound": "Cc1ccc(C)c(Nc2nc3c(S(=O)(=O)c4ccc(Br)cc4)nnn3c3ccsc23)c1", "survival": "inactive: 52%"}
{"compound": "Cc1ccc(NC(=O)Cn2c(=O)n(CCCS(=O)(=O)C3CCCCC3)c(=O)c3ccccc32)cc1F", "survival": "inactive: 83%"}
{"compound": "CCOc1ccc(CNCc2c(C(=O)O)n(Cc3ccc(OC)cc3)c3ccccc23)cc1", "survival": "inactive: 82%"}
{"compound": "Cc1ccc(N2CC(c3nnc(Cc4ccccc4Cl)o3)CC2=O)cc1", "note": "(stereo not drawn)", "survival": "inactive: 70%"}
{"compound": "CNC(=O)Nc1ccc2nc(C)sc2c1", "survival": "inactive: 84%"}
{"compound": "COc1ccc(-c2nc3c(C#N)c[nH]n3c2NC2CCCC2)cc1", "survival": "inactive: 56%"}
{"compound": "COc1ccccc1Cc1nc2ccccc2nc1SCC(=O)Nc1ccccc1C(F)(F)F", "survival": "inactive: 83%"}
{"compound": "COc1ccc(S(=O)(=O)n2nc(-c3ccco3)nc2NCc2ccc(OC)c(OC)c2)cc1", "survival": "inactive: 55%"}
{"compound": "C/C=C/NC(=O)c1nc2c(nnn2Cc2ccc(C)cc2)c(=O)[nH]1", "survival": "inactive: 98%"}
{"compound": "Cn1c(=O)c2c(-c3ccccc3Cl)n(Cc3ccc(Cl)cc3)cc2n(C)c1=O", "survival": "inactive: 60%"}
{"compound": "Cc1cccc(N2CCN(C(=O)CCC(=O)NNc3nc4ccccc4c4nc(C)nn34)CC2C)c1", "note": "(stereo not drawn)", "survival": "inactive: 72%"}
{"compound": "CC1NC(=O)NC2NC(=O)NC(C)C12", "note": "(stereo not drawn)", "survival": "inactive: 112%"}
{"compound": "CCc1ccccc1NC(=O)CN1C(=O)COc2ccc(S(=O)(=O)Nc3ccccc3)cc21", "survival": "inactive: 72%"}
{"compound": "COc1ccccc1CNS(=O)(=O)c1ccc2c(c1)NC(=O)CC(=O)N2", "survival": "inactive: 89%"}
{"compound": "Cc1ccc(-n2nc(C)c3c(C(=O)NCc4ccccc4)cc(C4CC4)nc32)cc1", "survival": "inactive: 115%"}
{"compound": "COc1ccccc1Nc1nn2c(=O)c3ccc(C(=O)N4CCCC(C)C4)cc3nc2s1", "note": "(stereo not drawn)", "survival": "inactive: 61%"}
{"compound": "Cc1ccc(S(=O)(=O)NCc2nc(-c3cccc(C)c3)no2)cc1", "survival": "inactive: 100%"}
{"compound": "COc1ccc(C2CC(=O)N(Cc3cccc(F)c3)c3ccccc3S2)cc1", "note": "(stereo not drawn)", "survival": "active: 47%"}
{"compound": "COc1ccc(Nc2nc(N)c3cc(OC)c(OC)cc3n2)cc1", "survival": "inactive: 87%"}
{"compound": "CC1CCc2c(sc(NC(=O)C3c4ccccc4Oc4ccccc43)c2C(=O)OC(C)C)C1", "note": "(stereo not drawn)", "survival": "active: 47%"}
{"compound": "CCOC(=O)c1scc(-c2ccccc2)c1S(=O)(=O)Nc1cc(Cl)c(OC)cc1OC", "survival": "inactive: 88%"}
{"compound": "NS(=O)(=O)c1ccc(NC(=S)NC(=O)c2cccnc2)cc1", "survival": "inactive: 91%"}
{"compound": "COc1cccc(CNC(=O)c2nn(-c3ccc(C)cc3)c(=O)c3c2c2ccccc2n3C)c1", "survival": "inactive: 120%"}
{"compound": "COC(=O)c1ccc(CSc2nc3c([nH]c4ccccc43)c(=O)n2-c2ccc(OC)cc2)o1", "survival": "inactive: 115%"}
{"compound": "COc1ccc(CNC(=O)c2c3c(nc4ccccc24)C(=O)N(C2CCCCC2)C3)cc1", "survival": "inactive: 83%"}
{"compound": "CCOC(=O)c1oc2ccc(S(=O)(=O)n3nc(-c4ccc(Br)cc4)cc3N)cc2c1C", "survival": "inactive: 78%"}
{"compound": "O=C(Cc1ccccc1)NCCc1csc2nc(-c3ccc(Cl)cc3)nn12", "survival": "inactive: 71%"}
{"compound": "O=C(Nc1cc(C(F)(F)F)ccc1Cl)c1cc(-c2ccc3c(c2)OCCO3)on1", "survival": "inactive: 116%"}
{"compound": "COC(=O)c1cccnc1-n1c(=O)c2cccnc2n(CC(=O)Nc2ccc(C)cc2C)c1=O", "survival": "inactive: 81%"}
{"compound": "O=C1S/C(=C/c2ccc3c(c2)OCO3)C(=O)N1CN1CCCCC1", "survival": "inactive: 80%"}
{"compound": "Cc1ccc2c(c1)N(C(=O)CCC(=O)NCc1ccccc1Cl)CC(C)O2", "note": "(stereo not drawn)", "survival": "inactive: 68%"}
{"compound": "CNC(=S)NC1CC2CCCC(C1)N2Cc1ccco1", "note": "(stereo not drawn)", "survival": "inactive: 80%"}
{"compound": "COc1ccc(NC(=O)CSc2nnc(NC(=O)Nc3ccccc3)s2)cc1OC", "survival": "inactive: 86%"}
{"compound": "CC(NC(=O)Cn1c(=O)oc2cc(S(=O)(=O)NCc3ccccc3)ccc21)c1ccccc1", "note": "(stereo not drawn)", "survival": "inactive: 78%"}
{"compound": "Cc1ccccc1Nc1nc(-c2cccc(Cl)c2)c2c(n1)-c1ccccc1OC2", "survival": "inactive: 62%"}
{"compound": "CC(=O)c1ccc(NC(=O)COc2ccccc2-c2nc(-c3cccc(C)c3)no2)cc1", "survival": "inactive: 57%"}
{"compound": "COCCCNC(=O)c1ccc2c(c1)N(Cc1ccccc1)C(=O)c1ccccc1S2", "survival": "inactive: 64%"}
{"compound": "O=C(CSc1nc(=O)n(CCN2CCOCC2)c2c1CCC2)Nc1ccccc1", "survival": "inactive: 75%"}
{"compound": "COc1ccccc1CNC(=O)CCCn1c(=O)c2ccccc2n(CC(=O)Nc2c(C)cc(C)cc2C)c1=O", "survival": "inactive: 166%"}
{"compound": "CCn1cc(C(=O)NCc2ccccc2Cl)c(=O)c2cc(S(=O)(=O)N3CCc4ccccc4C3)ccc21", "survival": "inactive: 74%"}
{"compound": "CCCC(=O)Nc1cc(C)c(NC(=O)C23CC4CC(CC(C4)C2)C3)cn1", "survival": "inactive: 85%"}
{"compound": "Cc1ccccc1C(=O)NC1(C(F)(F)F)C(=O)Nc2c1c(=O)[nH]c(=O)n2-c1ccc(F)cc1", "note": "(stereo not drawn)", "survival": "inactive: 144%"}
{"compound": "COc1cccc(Cn2c(CNC(=O)c3cc([N+](=O)[O-])ccc3Cl)nc3cccnc32)c1", "survival": "inactive: 117%"}
{"compound": "CN(C)/C=C(\\C#N)c1nc2ccccc2[nH]1", "survival": "inactive: 73%"}
{"compound": "CCN(Cc1ccccc1)Cc1c(O)ccc2c(=O)c(-c3ccc(Cl)cc3Cl)coc12", "survival": "inactive: 68%"}
